Test results: PubChem BioAssay AID651687 (Broad Institute, 2012)
Screen size: about 350,000 compounds; about 600 (0.17%) were called active. Inconclusive means that the source gave no clear call. Such entries were picked first, then a sample of the others.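 The calls were made as follows: active = every replicate shows inhibition of at least 40%; inconclusive = mean inhibition at least 40% but some replicate below; inactive = the rest.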

assay: inhibitors of PGC1a acetylation signal, primary screen, cell-based, U2OS, AlphaScreen, inhibitor mode (AID 651687); conditions: AlphaScreen anti-acetyl-lysine, at 15.6 µM, active compounds read high, with virally co-expressed GCN5 acetyltransferase;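 also: 0% = neutral control wells and 100% = positive control wells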

Compound	inhibition
CC(NC1c2ccccc2-c2ccccc21)c1ccccc1 (centres undefined)	inconclusive: 40.1%
COc1ccc(S(=O)(=O)N2CCN(C(=O)c3cccs3)CC2)cc1OC	inconclusive: 44%
CCOC(=O)C(=CNc1ccc(C)cc1C)C(=O)OCC	inconclusive: 41.5%
COc1ccc(CN(C)C(=O)c2ccc(OCC(=O)Nc3cccc(C(F)(F)F)c3)c(OC)c2)c(OC)c1	inactive: 6.69%
O=C(O)CSCC(=O)NCc1ccc(Cl)cc1Cl	inconclusive: 41.2%
O=C(NC(=S)Nc1ccccc1N1CCCC1)c1cccs1	active: 50.8%
C[C@@H]1CN([C@@H](C)CO)C(=O)c2cc(C#CCN(C)C)cnc2O[C@H]1CN(C)Cc1ccc(F)cc1	inconclusive: 48.5%
COCCCNC(=O)c1ccc(Cn2c(=O)c3ccccc3n(Cc3ccccc3C)c2=O)cc1	inconclusive: 52.2%
COc1ccc(NC(=O)[C@H](Cc2c[nH]c3ccccc23)NC(=O)[C@@H]2Cc3ccccc3CN2)cc1	active: 63.5%
O=C(c1cc([N+](=O)[O-])ccc1N1CCCC1)N1CCCC1	inconclusive: 51.9%
COc1ccc(CCNC(=O)COc2ccc(S(=O)(=O)N3CCCC3)cc2)cc1	inconclusive: 47.6%
COc1ccc(CCNCc2ccc(-c3ccccc3)cc2)cc1OC	inconclusive: 44.9%
O=C(C[C@H]1CC[C@@H]2[C@H](COC[C@@H](O)CN2S(=O)(=O)c2ccccc2)O1)N1CCOCC1	inactive: -2.82%
COc1cc2oc3cc(C#Cc4ccc(N)cc4)ccc3c(=O)c2cc1OC	inactive: -1.73%
COc1ccc2c([N+](=O)[O-])c(N3CCCC3)[nH]c2c1	inconclusive: 48.3%
COc1ccc2nc(-c3ccco3)c(-c3ccco3)nc2c1	inactive: -1.6%
COc1ccc(CN(C)C[C@H]2Oc3ccc(NS(=O)(=O)c4cn(C)cn4)cc3C(=O)N([C@H](C)CO)C[C@@H]2C)cc1	inactive: -4.68%
O=C(CN1C(=O)C2CC=CCC2C1=O)Nc1nccs1 (centres undefined)	active: 50.1%
COc1ccc(C)cc1NC(=O)C1CCCN(S(=O)(=O)c2cccs2)C1 (centres undefined)	inconclusive: 43.7%
COCC(=O)Nc1ccc2c(c1)OC[C@@H](C)N(CCc1ccccc1)C[C@H](C)[C@H](OC)CN(C)C2=O	inconclusive: 46.2%
CNC(=O)COC(=O)c1cc(-c2ccco2)nc2ccccc12	inconclusive: 45.7%
CCCCc1c(C)nc2ccc(C)cc2c1SCCC(=O)O	inactive: -2.08%
Cc1ccc(CNC(=O)CSCc2ccccc2)cc1	inactive: 12.2%
CCc1c(C(=O)NC2CCCCC2)[nH]c(C)c1C(C)=O	active: 93.4%
